Test results taken from PubChem BioAssay AID1347417 (National Center for Advancing Translational Sciences (NCATS), 2020).
In all, about 120,000 compounds went through this assay and about 5,300 (4.4%) were called active. The shares of active, inactive and inconclusive entries below differ from those in the screen. Calls come from the whole dose curve; as a rule, active = well fitted inhibition curve with a large enough effect; inconclusive = small, poorly fitted or top-dose-only effect; inactive = no such curve, though single readings can be large or run the other way. Where the call is inconclusive, the potency comes from a doubtful curve fit.

Assay: qHTS Primary assay for Inhibitors of Plasmodium falciparum Dd2 growth in vitro; note: nearly all actives have a fitted effect of over 65% in size;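 for activity, negative = inhibition: plate controls were DMSO vehicle for no effect and reference drug for full effect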
Details: P. falciparum Dd2 growth, SYBR Green, 72 h; activity, negative = inhibition: at 28.9 µM (top of the series) unless noted; series mostly up to 28.9 µM
In short: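 Infected erythrocytes (Dd2, 0.3% parasitemia, 2.5% hematocrit final) are added to compound in RPMI-1640/Albumax II medium, grown 72 h at 37C in low oxygen, then lysed with saponin/Triton-X containing SYBR Green and read by fluorescence.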
Potency is the fitted concentration of half-maximal effect; tags give direction and shape of the fitted curve.

| SMILES | Potency | activity, negative = inhibition | outcome |
| --- | --- | --- | --- |
| COc1cccc(N2CCN(C(=O)c3ccc(N4CC5CC(C4)[C@H]4CCCC(=O)N4C5)nc3)CC2)c1 (some centres not stated) | inconclusive: 3.98 µM [inhibitor, partial curve, poor fit] | – | – |
| Cc1ccc(N2Cc3c(NCCO)ncnc3N(C)CC2=O)cc1 | – | inactive: -0.365% [at 44.1 µM] | – |
| CSCC(=O)N1C[C@@H](NC(=O)Nc2ccc(F)cc2F)C[C@H]1C(=O)N[C@@H](Cc1cccs1)C(N)=O | inconclusive: 8.91 µM [inhibitor, single point] | – | – |
| COc1ccc(NC(=O)N2CC(N(CC(C)C)C3CCOCC3)C2)cc1F | inconclusive: 10 µM [inhibitor, partial curve] | – | – |
| O=C(CCc1nnc2n(Cc3ccccc3Cl)c(=O)c3ccccc3n12)Nc1ccccc1 | inconclusive: 10 µM [inhibitor, partial curve, poor fit] | – | – |
| CCN1CCC2(Cc3ccccc3CN(C(=O)c3cccc(Cl)c3)C2)C1 (configuration not stated) | inconclusive: 7.08 µM [inhibitor, partial curve] | – | – |
| CC(C)N1C[C@H](O)C[C@H]1c1nnc2n1CCN(C(=O)c1cccn1C)C2 | – | inactive: 42.6% | – |
| O=C(NCc1ccc2c(c1)CCN2C(=O)c1ccncc1)c1cccc(F)c1 | – | – | inactive |
| O=C(N[C@H]1CO[C@H]2[C@@H]1OC[C@@H]2Nc1nccc(-c2ccc(-c3ccccc3)cc2)n1)C1CCCCC1 | inconclusive: 0.0708 µM [inhibitor, single point] | – | – |
| CCOC(=O)c1[nH]c(C)c(C(=O)NCc2ccccc2Cl)c1C | inconclusive: 2 µM [inhibitor, single point] | – | – |
| CC(C)(C)C1CCC2(CC1)NC(=O)N(CC(=O)NC1CCCCC1)C2=O (configuration not stated) | inconclusive: 1.41 µM [inhibitor, full curve] | – | – |
| Cc1cccc(NC(=O)c2cc3c(C)nn(-c4ccccc4)c3s2)c1 | inconclusive: 17.8 µM [inhibitor, partial curve, poor fit] | – | – |
| Cn1ncc(N2CCC(NC(=O)CC(C)(C)C)CC2)cc1=O | – | inactive: 38.9% | – |
| COc1ccc2c(ccn2CCNC(=O)C2CC(=O)N(c3n[nH]c4ccccc34)C2)c1 (configuration not stated) | – | – | inactive |
| O=C(CCCc1ccccc1)Nc1ccc(-c2nnc3n2CCCC3)cc1 | inconclusive: 15.8 µM [inhibitor, single point] | – | – |
| CCCn1cc(NC(=O)CC[C@H]2NC(=O)c3ccccc3NC2=O)c(C)n1 | – | inactive: -3.41% | – |
| Cc1ccc(CNC(=O)C2CCCCC(=O)N2)o1 (configuration not stated) | – | – | inactive |
| Cc1ccc(C(=O)N2CCc3sc(C(=O)NC(C)c4ccccc4)cc3C2)cc1 (configuration not stated) | active: 7.08 µM | – | – |
| COc1ccc(C(=O)N2CCN(CCc3ccccn3)CC2)cc1 | inconclusive: 17.8 µM [inhibitor, single point] | – | – |
| Cc1ccc([C@H]2C[C@@H](O)[C@@H](O)[C@@H]2N2CCCCC2)cc1 | – | inactive: -14.2% [at 44.1 µM] | – |
| Cc1ccc(CCN2CCCC3(Cc4ccccc4CN([S+](C)(=O)[O-])C3)C2)cc1 (configuration not stated) | inconclusive: 8.91 µM [inhibitor, single point] | – | – |

| SMILES | Potency | activity, negative = inhibition | outcome |
| --- | --- | --- | --- |
| O=c1[nH]c(C2CCCN(Cc3ccccc3C(F)(F)F)C2)nn1-c1ccc(Cl)cc1 (configuration not stated) | inconclusive: 17.8 µM [inhibitor, single point] | – | – |
| CC1=C(C(=O)Nc2ccc(C)cc2C)C(c2cc(Br)ccc2F)n2ncc(C(=O)Nc3ccc(C)cc3)c2N1 (configuration not stated) | active: 0.891 µM | – | – |
| CN1CCN(c2ccc(-c3cccc(N)c3)nn2)CC1 | inconclusive: 0.112 µM [inhibitor, full curve, poor fit] | – | – |
| COc1ccccc1N1CCN(c2ncccc2CNC(=O)c2ccco2)CC1 | inconclusive: 20 µM [inhibitor, single point] | – | – |
| O=C(NC1CCNCC1)C1CCCN(c2nc(-c3ccccc3)nc3c2CCC3)C1 (configuration not stated) | inconclusive: 20 µM [inhibitor, single point] | – | – |
| Cc1cc(C[C@@H]2COC[C@@H]2NC(=O)CCn2c(C)cc3ccccc32)on1 | inconclusive: 17.8 µM [inhibitor, single point] | – | – |
| O=C(O)c1ccc(-c2cnccn2)cc1 | – | inconclusive: -30.7% [inhibitor] [at 44.1 µM] | – |
| Cc1nc(C2CCN(C(=O)C3(C(N)=O)CC3)CC2)cc(N2CCOCC2)n1 | – | inactive: -20.1% | – |
| COc1cccc(CC(=O)N2CCCn3nc(C)c(-c4ccccc4OCc4ccccc4)c32)c1 | inconclusive: 0.891 µM [inhibitor, full curve, poor fit] | – | – |
| COC(=O)[C@H](Cc1ccc(OC)cc1)NC(=O)[C@H]1CN(C(=O)Nc2ccccc2)CCN1C(=O)NC(C)C | inconclusive: 0.316 µM [inhibitor, full curve, poor fit] | – | – |
| Cc1ccc2nc(Cl)c3cc(C(=O)N4CCCC(C)C4)sc3c2c1 (configuration not stated) | inconclusive: 17.8 µM [inhibitor, single point] | – | – |
| Cc1ccccc1-c1cc(O)c2c(c1)CN(Cc1nccn1C)CCO2 | inconclusive: 8.91 µM [inhibitor, single point] | – | – |
| Cc1ccc(CNC(=O)N2CCCC(n3c(C)cnc3C3CCOCC3)C2)cc1 (configuration not stated) | inconclusive: 17.8 µM [inhibitor, single point] | – | – |
| COc1ccccc1C(=O)N[C@H]1[C@H](O)[C@H](O)C[C@@H]1c1cccnc1 | inconclusive: 1.12 µM [inhibitor, full curve, poor fit] | – | – |
| COCCn1c(C)nnc1-c1cc(-c2cccc(O)c2)ccn1 | – | – | inactive [at 44.1 µM] |
| CCCOC(=O)c1cccc(Nc2nc(C(=O)OCC)nc3ccccc23)c1 | active: 5.62 µM | – | – |
| Cc1cccc(C(=O)NCc2nnc3cc(-c4nc(C)no4)ccn23)c1 | – | – | inactive |
| O=C(C1CCC1)N1CCC2(CC1)CC(Cc1nc(C3CC3)no1)CCO2 (configuration not stated) | inconclusive: 20 µM [inhibitor, single point] | – | – |
| CCOc1ccc(N(C)S(=O)(=O)c2cc(-c3cnc(C)o3)ccc2OC)cc1 | inconclusive: 10 µM [inhibitor, single point] | – | – |
| O=C1NCCCCCCN(C(=O)c2ccoc2)[C@H]2C[C@H](C(=O)N3CCc4ccccc4C3)C[C@@H]12 | inconclusive: 2.51 µM [inhibitor, full curve, poor fit] | – | – |
| COc1ccc(CNC(=O)C2CCN(c3nnc(C)c4c(C)n(-c5ccc(C)cc5)nc34)CC2)cc1 | active: 7.94 µM | – | – |
